Reference: PubChem BioAssay AID463173 (ICCB-Longwood Screening Facility, Harvard Medical School, 2010)
Out of some 52,000 compounds screened, about 1,700 (3.3%) were called active. Cut-off read from the data, not from the text of the source: active = survival mostly below about 52% (no sharp cut-off); inactive = mostly above about 56%. The list shows a part of the results.

Tested on: Wild type
Test: growth inhibition of S. aureus wild type versus tarO mutant, primary screen, teichoic acid synthesis inhibitors, RN4220, OD600 (AID 463173)
Details: S. aureus RN4220 wild type/DeltatarO growth, OD600, 18 h, active compounds read low, screened at 18.75 µg/mL (by protocol)

Which survival does the source give for `Cc1ccc(C)c(N2CCN(C(=O)c3cnn(C(C)(C)C)c3C3CCN(C(=O)OC(C)(C)C)CC3)CC2)c1` here?
The survival was inactive: 77%.

`CCn1cc2nc(SCc3cccc(C(F)(F)F)c3)n(Cc3ccc(Cl)cc3)c(=O)c2n1` was tested. Which survival did it give?
Its survival is inactive: 146%.

Which survival does the source give for `COc1ccc(OC)c(NC(=O)CCCc2nnc3n(C(C)C)c(=O)c4sccc4n23)c1` here?
Its survival is inactive: 85%.

How did the survival turn out when `Cc1ccc(Cl)cc1-n1nnc(-c2nsc(NC(=O)c3ccccc3Cl)n2)c1C` was run?
Its survival is inactive: 30%.

`COc1ccc(C)cc1NC(=O)N1CCC(CN2CCOCC2)CC1` was tested. Which survival did it give?
Its survival is inactive: 82%.

`Cc1ccc(N(CC(=O)N2CCN(c3cccc(Cl)c3)CC2)S(=O)(=O)c2c(C)noc2C)cc1` was tested. Which survival did it give?
Its survival is inactive: 78%.

Which survival does the source give for `CCc1ccc(-n2c(=O)c3ccccc3n(CC(=O)NCCc3ccc(OC)c(OC)c3)c2=O)cc1` here?
The survival was inactive: 102%.

With `COc1ccc(Cl)cc1NC(=O)NCCn1c(=O)oc2ccc(C)cc21` as the compound, how does the survival read?
Its survival is inactive: 62%.

How did the survival turn out when `Cc1ccccc1NC(=O)c1c(NC(=O)c2ccccc2)sc2c1CCC2` was run?
The survival was inactive: 137%.

With `OCCN(Cc1ccccc1)Cc1ccccc1O` as the compound, how does the survival read?
The survival was inactive: 89%.

For `Cc1ccc2cc3cc(C(=O)N4CCN(c5ccc(Cl)cc5)CC4)oc3nc2c1`, which survival is on record?
Its survival is inactive: 86%.

With `CCOc1ccc(NC(=O)CC2C(=O)N(c3ccccc3)C(=O)N2CCc2cccs2)cc1` (configuration not stated) as the compound, how does the survival read?
Its survival is inactive: 63%.

Which survival does the source give for `Cn1c(SCC(=O)NC(C)(C)C)nc2cccnc21` here?
The survival was inactive: 107%.

With `Fc1cccc(-c2cc3nc4c(c(NCCCN5CCOCC5)n3n2)CCCC4)c1` as the compound, how does the survival read?
The survival was inactive: 103%.

Which survival does the source give for `COc1ccc(-c2cn3nc(N4CCC(C(=O)Nc5ccccc5OC)CC4)sc3n2)cc1` here?
Its survival is inactive: 54%.

Which survival does the source give for `CCN(CC)C(=O)c1sc2c(c1C)c(=O)n(-c1ccccc1)c(=O)n2Cc1c(C)cc(C)cc1C` here?
Its survival is inactive: 71%.

Which survival does the source give for `CC(C)C(NS(=O)(=O)c1ccc2c(c1)oc(=O)n2C)C(=O)N1CCN(c2cccc(Cl)c2)CC1` (configuration not stated) here?
Its survival is inactive: 131%.

With `COC(=O)/C(C#N)=C/c1ccc(C)s1` as the compound, how does the survival read?
Its survival is inactive: 109%.

With `CCN(CC)C(=O)c1ccc2c(c1)N(Cc1c(F)cccc1Cl)C(=O)c1ccccc1S2` as the compound, how does the survival read?
The survival was active: 16%.

With `COc1ccc(NC(=O)C(Cc2c[nH]c3ccccc23)NC(=O)OC(C)(C)C)cc1` (configuration not stated) as the compound, how does the survival read?
The survival was inactive: 82%.

How did the survival turn out when `Cc1ccn2c(Nc3c(C)cccc3C)c(-c3ccsc3)nc2c1` was run?
Its survival is inactive: 54%.

For `COC(=O)Cn1c(=NC(=O)c2ccc3c(c2)OCCO3)sc2ccccc21`, which survival is on record?
The survival was inactive: 99%.

How did the survival turn out when `N#Cc1c[nH]n2c(=O)cc(Cc3ccccc3)nc12` was run?
The survival was inactive: 109%.

With `COc1ccc(N2CC(NC(=O)c3cccs3)CC2=O)cc1` (configuration not stated) as the compound, how does the survival read?
Its survival is inactive: 70%.

How did the survival turn out when `CCN(CC)CC(=O)Nc1sc2c(c1C#N)CCCC2` was run?
The survival was inactive: 111%.

For `O=C(CSc1nc(=O)[nH]c2c1CCCC2)Nc1ccc(Cl)c(Cl)c1`, which survival is on record?
The survival was inactive: 95%.

`CC1(C)Cc2c(ccc3ccccc23)CN1` was tested. Which survival did it give?
The survival was inactive: 105%.

`CN(Cc1ccccc1)c1nnc(NC(=O)Nc2cccc(Br)c2)s1` was tested. Which survival did it give?
The survival was inactive: 113%.

For `Cc1ccc(-n2nc(C(=O)Nc3ccc(F)cc3Cl)c(=O)n(C)c2=O)cc1`, which survival is on record?
Its survival is inactive: 68%.

For `CCN(CC)S(=O)(=O)c1ccc(NC(=O)c2cc3ccc4cccnc4c3[nH]2)cc1`, which survival is on record?
The survival was inactive: 70%.

`Cc1cc(N2CCN(C)CC2)nc2ccc(NC(=O)c3ccc(C(C)(C)C)cc3)cc12` was tested. Which survival did it give?
Its survival is active: -20%.

With `Cc1ccc(C(=O)n2nc(C)c(S(=O)(=O)N3CCCCCC3)c2C)cc1C` as the compound, how does the survival read?
Its survival is inactive: 55%.

With `COc1ccc(Cn2c(=O)n(-c3ccc(F)c(Cl)c3)c(=O)c3c2c2cc(OC)ccc2n3C)cc1` as the compound, how does the survival read?
The survival was inactive: 91%.

How did the survival turn out when `CCc1nnc(NC(=O)CSc2nccn2Cc2ccc(C)cc2)s1` was run?
The survival was inactive: 73%.

For `COc1ccccc1NC(=O)CSc1nc(O)c(C/C=C/c2ccccc2)c(=O)[nH]1`, which survival is on record?
The survival was inactive: 74%.

Which survival does the source give for `COc1ccc(CNC(=O)c2nc(SCc3ccc(C)cc3)ncc2Cl)cc1` here?
The survival was inactive: 92%.

For `CCOc1cccc2sc(N3CCN(C(=O)c4ccc5c(c4)CCCC5)CC3)nc12`, which survival is on record?
The survival was inactive: 75%.

Which survival does the source give for `CCOC(=O)c1c(S(=O)(=O)N2CCC(C(=O)NCc3cccc(C)c3)CC2)c(C)n(C)c1C` here?
The survival was inactive: 69%.

`O=C(O)CCC(=O)Nc1ccc2c(c1)oc1ccccc12` was tested. Which survival did it give?
Its survival is inactive: 106%.

How did the survival turn out when `CCCCOc1ccc(C2(C)NC(=O)N(C)C2=O)cc1` (configuration not stated) was run?
The survival was inactive: 112%.

Which survival does the source give for `CCCCc1ccc(NC(=O)c2cc(-c3ccc(C)c(F)c3)on2)cc1` here?
Its survival is inactive: 87%.

Which survival does the source give for `Cn1c(=O)c2sccc2n2c(CCC(=O)N3CCN(c4ccc(F)cc4)CC3)nnc12` here?
Its survival is inactive: 151%.

`CCc1ccc2[nH]c(=O)c(CN(CCCO)C(=O)Nc3ccccc3)cc2c1` was tested. Which survival did it give?
The survival was inactive: 107%.

For `Cc1ccc(OCc2nc(-c3ccc(C(=O)NCCc4ccc(Cl)cc4)cc3)oc2C)cc1`, which survival is on record?
Its survival is inactive: 69%.

`Cc1ccc(NC(=O)CN2C(=O)CCc3ccccc32)cc1C` was tested. Which survival did it give?
Its survival is inactive: 85%.

`CC(C)Nc1ccc(-c2nc(-c3ccncc3)no2)cc1[N+](=O)[O-]` was tested. Which survival did it give?
Its survival is inactive: 79%.

`COc1ccc(NC(=O)c2nn(C)c3c2CS(=O)(=O)c2ccccc2-3)cc1Cl` was tested. Which survival did it give?
Its survival is inactive: 91%.

How did the survival turn out when `COc1ccc(C2=C(Nc3ccc(Br)c(C)c3)c3ccccc3C2=O)cc1` was run?
Its survival is active: 20%.

With `Cc1ccccc1CN1C(=O)c2ccccc2Sc2ccc(C(=O)NC3CCCCC3)cc21` as the compound, how does the survival read?
Its survival is inactive: 74%.

Which survival does the source give for `CC1=NN(Cc2ccccc2)C(=O)/C1=C\c1ccc(N(C)C)cc1` here?
Its survival is inactive: 107%.

How did the survival turn out when `CCc1nn(CC(=O)N2CCN(c3cccc(OC)c3)CC2)c(=O)c2cc3occc3n12` was run?
The survival was inactive: 80%.

`CCN(CC)C(=O)CSc1nc2cccnc2n1-c1ccccc1OC` was tested. Which survival did it give?
Its survival is inactive: 107%.

How did the survival turn out when `COc1ccc(N(CC(=O)NC(C)c2ccccc2)S(=O)(=O)c2c(C)nn(C)c2C)cc1` (configuration not stated) was run?
Its survival is inactive: 89%.

How did the survival turn out when `COc1ccc(N2CCN(Cc3nc4c(c(=O)[nH]c(=O)n4C)n3Cc3ccc(C)cc3)CC2)cc1` was run?
Its survival is inactive: 113%.

`CCOC(=O)c1c(C)[nH]c(C)c1S(=O)(=O)N1CCCC(C(=O)N2CCN(c3ccccc3F)CC2)C1` (configuration not stated) was tested. Which survival did it give?
Its survival is inactive: 82%.

Which survival does the source give for `CC1CN(C(=O)CCC(=O)NCc2cccc(Cl)c2)c2ccccc2S1` (configuration not stated) here?
Its survival is inactive: 108%.

`O=C(Nc1ccc(CN2CCCCC2)cc1)c1cccnc1Cl` was tested. Which survival did it give?
The survival was inactive: 101%.
